Laboratory results from the BET-seq Pho4 binding data (Le et al. 2018).
The list shows a part of the results. These are noisy estimates, calculated here from bound and input reads.

target: T1, Pho4 (S. cerevisiae) (UniProt P07270); test: relative binding free energy (BET-seq); higher = weaker binding; settings: reference: library average
T1 sequence: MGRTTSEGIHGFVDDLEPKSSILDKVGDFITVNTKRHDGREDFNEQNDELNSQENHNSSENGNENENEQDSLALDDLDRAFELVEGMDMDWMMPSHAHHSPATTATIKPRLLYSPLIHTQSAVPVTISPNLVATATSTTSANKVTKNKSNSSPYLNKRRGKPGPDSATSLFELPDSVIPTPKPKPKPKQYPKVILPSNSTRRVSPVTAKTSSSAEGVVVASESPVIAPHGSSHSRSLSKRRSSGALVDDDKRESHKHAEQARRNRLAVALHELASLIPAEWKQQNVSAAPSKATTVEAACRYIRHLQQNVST

Relative binding free energy, -0.03 kcal/mol:
TAATGCACGTGTAGGT
GTTGGCACGTGTGGAT
CGTGACACGTGGGTTT

Relative binding free energy, -0.11 kcal/mol:
TTTAACACGTGGTATG
ACTGGCACGTGGTTCG

Relative binding free energy, -0.22 kcal/mol:
AAGGGCACGTGCGGGC
CGGAGCACGTGGGATG
TTAGGCACGTGGTGCC
ATTACCACGTGGTGTT

Relative binding free energy, 0.11 kcal/mol:
CAGGACACGTGGTTAG
TGGGACACGTGACGTG
CTAGGCACGTGAGTGG
TGGCTCACGTGGTTCG
GGGTACACGTGCGGGC
GTATACACGTGGTGAT

Relative binding free energy, -0.15 kcal/mol:
GTGGGCACGTGTGCAT

Relative binding free energy, -0.19 kcal/mol:
TTATACACGTGTATAG
GGAAACACGTGGGGGT

Relative binding free energy, -0.21 kcal/mol:
AGATGCACGTGGGGCA
ATGGGCACGTGGGGGC

Relative binding free energy, -0.13 kcal/mol:
GGGGGCACGTGTATAG
CAGGGCACGTGCTTTG
TTGAGCACGTGGATGA
CTTCGCACGTGGGGAT
TCCGGCACGTGGTAGG

Relative binding free energy, 0.01 kcal/mol:
TGTCACACGTGTCGTT
GGTTACACGTGGGTTT
TGAGACACGTGGATGT
CTGGGCACGTGTGGGG

Relative binding free energy, 0.07 kcal/mol:
CGACTCACGTGGGTTG
CTGGGCACGTGAGAGT
TTTAACACGTGTCGAG
TATGGCACGTGTAAAG
TACGTCACGTGGGGGC
CAAGGCACGTGTGGAA

Relative binding free energy, -0.18 kcal/mol:
GCCGGCACGTGCGGGG
TAGGGCACGTGATGCA

Relative binding free energy, 0.3 kcal/mol:
TTCTTCACGTGTGGCT
AGACTCACGTGATGTG
TAGTTCACGTGCGGGA

Relative binding free energy, 0.35 kcal/mol:
GAAATCACGTGGCGTT

Relative binding free energy, 0.02 kcal/mol:
TCAGGCACGTGTGAAT
AGGGGCACGTGAGGCT
TCAGTCACGTGTGGTT
CTAATCACGTGGTTAG
CGTGGCACGTGAGTGC

Relative binding free energy, -0.05 kcal/mol:
GTAAGCACGTGGATTA
GTAAGCACGTGTTCTG
GGAAACACGTGGAGTG

Relative binding free energy, 0.42 kcal/mol:
GTCTTCACGTGTTTCG
GATGACACGTGAGGTC
TGGATCACGTGAATTT

Relative binding free energy, 0.12 kcal/mol:
GGGGTCACGTGGTGTT
TTGGTCACGTGTTAGA
GTTTGCACGTGGATTT
AATGGCACGTGAGGAG
GTTTCCACGTGTAGGT

Relative binding free energy, 0.14 kcal/mol:
CGATTCACGTGGTAGG
GTGTCCACGTGATTTT
TGGCGCACGTGAGTGG
ATTTTCACGTGGCATA
CGTGCCACGTGAGGTG

Relative binding free energy, -0.04 kcal/mol:
AATTGCACGTGTCTTT

Relative binding free energy, 0.4 kcal/mol:
GAGATCACGTGATGGT
GAGTTCACGTGGGTCG
TATATCACGTGTAGAT

Relative binding free energy, 0.22 kcal/mol:
TCTGTCACGTGTAAGT
AAGTGCACGTGAGTGA
TTCTACACGTGTTTCT
GAGCTCACGTGGGGAA

Relative binding free energy, -0.17 kcal/mol:
CCTGGCACGTGGGGGC
TGTACCACGTGGGGAA
GTGGGCACGTGGAGAC

Relative binding free energy, 0.29 kcal/mol:
TATCTCACGTGTTAGA
GAGTTCACGTGTGAGG

Relative binding free energy, 0.28 kcal/mol:
GTGAACACGTGAGGTT

Relative binding free energy, -0.3 kcal/mol:
CGTGCCACGTGGGGAT

Relative binding free energy, 0.43 kcal/mol:
TATTACACGTGAATAT

Relative binding free energy, 0.34 kcal/mol:
GTTTGCACGTGTAAGC
TTAGTCACGTGGAAAC
TCGTTCACGTGTCGGT

Relative binding free energy, 0.13 kcal/mol:
GTGTACACGTGTTTGG
TCTTGCACGTGTAGTT
GGCATCACGTGGTGCT
TTAGTCACGTGTTTAA
TCGGTCACGTGCGTTG
ATCTGCACGTGATGGG

Relative binding free energy, 0.33 kcal/mol:
TTATTCACGTGTTCCG

Relative binding free energy, 0.37 kcal/mol:
GTGATCACGTGAGGTT
TTCTTCACGTGTTGGC

Relative binding free energy, 0.03 kcal/mol:
GTTATCACGTGGGGCG
ACTGACACGTGTGTTT
TGAGACACGTGTGTGG
CTGGTCACGTGTATTT

Relative binding free energy, 0.04 kcal/mol:
ATGTCCACGTGTCGGT
TGAGTCACGTGGAAGT
AGGGACACGTGTGTGA
TATTGCACGTGTCGTC

Relative binding free energy, -0.07 kcal/mol:
TTATGCACGTGGGTTT
GTTAGCACGTGTTATG
GAGGGCACGTGTGTCT
TGGCGCACGTGCGTCG
AGTGACACGTGTTTGA

Relative binding free energy, 0.17 kcal/mol:
GTTCTCACGTGGCGTT
AGATGCACGTGATGGA
GTGTTCACGTGCTCTG
GCTATCACGTGTGCGG
TCTTTCACGTGGTTGC
GTATTCACGTGTAGGA

Relative binding free energy, 0.27 kcal/mol:
CGGGTCACGTGAGGGA
ATTTTCACGTGTGCTT
CGCGGCACGTGAGGGA
ATATTCACGTGTGAGG

Relative binding free energy, 0.1 kcal/mol:
TGTTACACGTGTTATT
CGTTGCACGTGAGGCT

Relative binding free energy, -0.16 kcal/mol:
TGGAGCACGTGTGTTC

Relative binding free energy, 0.26 kcal/mol:
AAGGACACGTGATGGT
TAGTACACGTGAGTCT
ATTTTCACGTGGAACG
GATATCACGTGTGTCG
GGGTTCACGTGCTGTA
ATGAGCACGTGAAGTT

Relative binding free energy, -0.06 kcal/mol:
CGTAACACGTGTTATG
TTACACACGTGGTTGG
AGAAGCACGTGGTTTG
TGGAACACGTGTTTTA
TGTGGCACGTGATTTC
CTTTACACGTGGGGGT
TGGTCCACGTGCGTTG

Relative binding free energy, -0.28 kcal/mol:
TGGGGCACGTGGCCAG

Relative binding free energy, 0.19 kcal/mol:
GTGGACACGTGTTTGT

Relative binding free energy, 0.39 kcal/mol:
TCGTTCACGTGAGTGG

Relative binding free energy, 0.46 kcal/mol:
TTAATCACGTGAAGCT

Relative binding free energy, 0 kcal/mol:
TCGGGCACGTGAGTTG
GGGGACACGTGGGGGG
GGGCCCACGTGTTTGG
TTCGCCACGTGAGGTG
CTGGGCACGTGTGCAT
TGTATCACGTGGTAGA

Relative binding free energy, 0.21 kcal/mol:
TAGGACACGTGAGTCG
TTATTCACGTGTAGCT
TATTTCACGTGTGCTG
GTTATCACGTGGAGTT

Relative binding free energy, -0.26 kcal/mol:
AGCGGCACGTGGGTGC

Relative binding free energy, -0.12 kcal/mol:
AAGTCCACGTGGGGAG
AGACACACGTGGGGGG
TTTGGCACGTGTACCG

Relative binding free energy, 0.41 kcal/mol:
TAAATCACGTGAATTT
GGGGACACGTGACGGA
TATGACACGTGAGATT

Relative binding free energy, 0.09 kcal/mol:
TACGTCACGTGGTCTT
GATGACACGTGGGGGA
ATAGACACGTGTCAGT
GATGACACGTGTGTTA
TCAGTCACGTGGTTAT

Relative binding free energy, 0.23 kcal/mol:
GAGTCCACGTGAGGGG

Relative binding free energy, 0.18 kcal/mol:
CGGGTCACGTGGTTCG
GAGCTCACGTGGGTGG
TTGTTCACGTGCGTTG
TGGGTCACGTGGTAGA
TAAAGCACGTGAGAGT

Relative binding free energy, 0.24 kcal/mol:
GCGTTCACGTGGTCGT
TATGGCACGTGAAGTC
ATATTCACGTGCGTTT
TGATTCACGTGGACTT
TGTTTCACGTGTTACT

Relative binding free energy, 0.06 kcal/mol:
GTCTCCACGTGGTAGT
TGGAGCACGTGACGAT
GATAACACGTGGTGTG
GCTGACACGTGTGTGT

Relative binding free energy, 0.16 kcal/mol:
TGTGTCACGTGTTGAA
GTGTCCACGTGTGAGA
CTGTTCACGTGGGTTA
TATTTCACGTGGGTTT
CGTTTCACGTGCTTGG
TTATTCACGTGTTCAG
TCGTACACGTGGTGAG

Relative binding free energy, -0.1 kcal/mol:
AGGGGCACGTGATGCG
TCTAACACGTGGTTTG
GGGTGCACGTGGCACT

Relative binding free energy, -0.02 kcal/mol:
GTTGGCACGTGTCCGT
TGCGGCACGTGTGAAG
TTTAACACGTGTACTT
CCGGTCACGTGGTGTA
GGAGGCACGTGTTTGG
TTATACACGTGGGAGC
TTCATCACGTGGGTGT
GTCGTCACGTGGCTGG

Relative binding free energy, -0.08 kcal/mol:
TTCACCACGTGGTGGT
GCATGCACGTGGGTGT
TGTCTCACGTGGGATG
TAAGGCACGTGGGATC

Relative binding free energy, -0.09 kcal/mol:
TATTGCACGTGGGAAG
TGTCGCACGTGTCATG
ACGGTCACGTGCGTGT
AGGGGCACGTGTGTTC
CTATGCACGTGGGTAT

Relative binding free energy, 0.15 kcal/mol:
TCCTACACGTGTGGGT
AAACTCACGTGTGTGT
CTTATCACGTGGCGGT
GTGAACACGTGTCAGT
AGGATCACGTGTAGCG
TATAACACGTGATGAG

Relative binding free energy, 0.54 kcal/mol:
GGATTCACGTGAGAGG

Relative binding free energy, -0.24 kcal/mol:
GTGGCCACGTGGGTAT

Relative binding free energy, 0.08 kcal/mol:
ACGATCACGTGTTTGG
TCTTGCACGTGTGGGT
TGTATCACGTGGTGGT
CGCGGCACGTGAGGCG
TTGAACACGTGTATTA
AGTATCACGTGTTATG

Relative binding free energy, 0.32 kcal/mol:
AACGTCACGTGATTTG

Relative binding free energy, -0.14 kcal/mol:
TTGCGCACGTGGGGAC
TAGGACACGTGGGGGC
TACGGCACGTGGATTG

Relative binding free energy, -0.27 kcal/mol:
GTCCCCACGTGGGGGG

Relative binding free energy, 0.05 kcal/mol:
AGAGTCACGTGCGTGG
GTTGGCACGTGTCGGG
TAGTGCACGTGTGTCG
ATCGTCACGTGTTTGT
CGTGACACGTGCGGGC
GATTGCACGTGCCGGT

Relative binding free energy, 0.2 kcal/mol:
GTCTTCACGTGCGGTG
TTCGACACGTGTTTAT
TAGGTCACGTGATTCG
GTACTCACGTGGTGTT

Relative binding free energy, -0.01 kcal/mol:
TCGATCACGTGGGGGT
GAAGGCACGTGGAGCG
AGCGTCACGTGCAGGG
TTTTCCACGTGGGGTT
